Consider five molecules from US20240124575A1 (SIMCERE ZAIMING PHARMACEUTICAL, published 2024).

The target in assay [1] is T1, human CD33-his protein (human, UniProt P20138 18-259).
T1 construct: range 18-259; bought protein; also called hCD33-his; recombinant human CD33-his; not shown: His tag
Description: competition ELISA, coated human CD33-his, vs Biotin-C33B904 at EC80; antibody 500 nM. For orientation: In an ELISA, binding on a coated surface is turned into a signal by an enzyme label.

Assay [2] concerns the target T1, human CD33-his protein. Description: competition ELISA, coated human CD33-his, vs Biotin-C33B904 at EC80; antibody 0.49 nM.
The target in assay [3] is T1, human CD33-his protein. Description: competition ELISA, coated human CD33-his, vs Biotin-C33B904 at EC80; antibody 0.98 nM.
T1 sequence (P20138 18-259 limits assumed): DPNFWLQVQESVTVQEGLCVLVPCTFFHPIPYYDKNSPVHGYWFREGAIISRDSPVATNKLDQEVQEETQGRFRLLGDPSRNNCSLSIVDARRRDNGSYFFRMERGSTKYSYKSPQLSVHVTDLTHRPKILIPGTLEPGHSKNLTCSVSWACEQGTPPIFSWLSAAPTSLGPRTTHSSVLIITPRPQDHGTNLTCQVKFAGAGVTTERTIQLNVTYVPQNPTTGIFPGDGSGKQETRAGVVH
The target in assay [4] is T1, human CD33-his protein. Put plainly: competition ELISA, coated human CD33-his, vs Biotin-C33B904 at EC80; antibody 1.95 nM.
Assay [5] concerns the target T1, human CD33-his protein. Put plainly: competition ELISA, coated human CD33-his, vs Biotin-C33B904 at EC80; antibody 3.91 nM.
Assay [6] addresses T1, human CD33-his protein. Description: competition ELISA, coated human CD33-his, vs Biotin-C33B904 at EC80; antibody 7.81 nM.
The target in assay [7] is T1, human CD33-his protein. Description: competition ELISA, coated human CD33-his, vs Biotin-C33B904 at EC80; antibody 15.63 nM.
Assay [8] deals with T1, human CD33-his protein. Put plainly: competition ELISA, coated human CD33-his, vs Biotin-C33B904 at EC80; antibody 31.25 nM.
Assay [9] concerns the target T1, human CD33-his protein. Put plainly: competition ELISA, coated human CD33-his, vs Biotin-C33B904 at EC80; antibody 62.50 nM.
Assay [10] has as its target T1, human CD33-his protein. Put plainly: competition ELISA, coated human CD33-his, vs Biotin-C33B904 at EC80; antibody 125.00 nM.
The target in assay [11] is T1, human CD33-his protein. Put plainly: competition ELISA, coated human CD33-his, vs Biotin-C33B904 at EC80; antibody 250.00 nM.
In assay [12] the target is T1, human CD33-his protein. Put plainly: competition ELISA, coated human CD33-his, vs Biotin-C33B904 at EC80; antibody 0 nM (no competitor).
Assay [13] concerns the target T1, human CD33-his protein. Put plainly: SPR (Biacore), antibody captured on Protein A chip, human CD33-his analyte. In general terms: Surface plasmon resonance follows binding to a sensor surface in real time, without labels.

As a reminder, the Kd is the concentration at which binding is half-saturated. Lower therefore signals higher affinity. As usually defined, the koff is a measure of how fast the partners let go of each other. High values mean a short-lived complex, low ones a long-lived complex. A word on the kon: it is the rate constant with which the complex forms. A lower kon goes with slower complex formation.

B1: S006-NB146-139 (Fc fusion)
chain: QLQLVESGGGLVQPGGSLRLSCAAPGIILDYYPIGWFRQAPGKEREGVSYITSSDDSTVYTYYTDSVKGRFTISRGKNTVYLQMNSLKPEDTAVYYCAARSTYIVGRNYHTLNSSDFDYWGQGTQVTVSS[letters of human IgG1 Fc with changes left out]
notes: tested as VHH-Fc (VHH with human IgG1 hinge and Fc)
For B1, the “OD450 (Biotin-C33B904 signal)” value is 1.7 with human CD33-his protein [1]; 2.49 with human CD33-his protein [2]; 2.22 with human CD33-his protein [3]; 2.4 with human CD33-his protein [4]; 2.49 with human CD33-his protein [5]; 2.62 with human CD33-his protein [6]. Also, the “OD450 (Biotin-C33B904 signal)” value with human CD33-his protein [7] stood at 2.6; with human CD33-his protein [8] it was 2.5; with human CD33-his protein [9], 2.4; with human CD33-his protein [10], 2.16; with human CD33-his protein [11], 1.98; with human CD33-his protein [12], 2.6.

B2: S006-NB146-69 (Fc fusion)
chain: EVQVVESGGGLVQAGGSLSLSCAASGSIFTINIMGWYRQAPGKQRELVAQINRVGDTNYPNSMAERFTISRDNAKNTMYLQMNTLKPEDTAVYYCNADIVESGRYSGKDYWGKGTLVTVSL[letters of human IgG1 Fc with changes left out]
notes: as for B1
For the molecule B2, the “OD450 (Biotin-C33B904 signal)” value worked out at 1.49 in the assay with human CD33-his protein [1]; 2.39 with human CD33-his protein [2]; 2.14 in the assay with human CD33-his protein [3]; 2.36 with human CD33-his protein [4]; 2.34 with human CD33-his protein [5]; 2.33 with human CD33-his protein [6]. The “OD450 (Biotin-C33B904 signal)” value came out at 2.55 with human CD33-his protein [7]; 2.43 with human CD33-his protein [8]; 2.32 with human CD33-his protein [9]; 2.03 in the assay with human CD33-his protein [10]; 1.78 with human CD33-his protein [11]; 2.51 with human CD33-his protein [12].

B3: S006-NB146-173 (Fc fusion)
chain: QVQLVESGGGLVQAGGSLRLSCAASGSTLSLHSMGWYRQAAGRQRELVAGISRDGDSNYLSSLAGRFFISRDGTKNTVYLQMTSLKPEDTAVYYCNARTSPWSAALWGQGTQVTVSS[letters of human IgG1 Fc with changes left out]
notes: as for B1
B3 had a dissociation constant Kd in the assay with human CD33-his protein [13] of 9.68 nM. Moreover, in the assay with human CD33-his protein [13], the koff worked out at 0.00179 s⁻¹. The molecule also displayed a kon with human CD33-his protein [13] of 185000 M⁻¹ s⁻¹. Also, the “OD450 (Biotin-C33B904 signal)” value in the assay with human CD33-his protein [1] came to 0.5; in the assay with human CD33-his protein [2], 2.42; with human CD33-his protein [3], 2.36; in the assay with human CD33-his protein [4], 2.47; with human CD33-his protein [5], 2.47; with human CD33-his protein [6], 2.38. In addition, the “OD450 (Biotin-C33B904 signal)” value in the assay with human CD33-his protein [7] was 2.1; in the assay with human CD33-his protein [8] it was 1.88; with human CD33-his protein [9] it was 1.52; with human CD33-his protein [10], 1.14; with human CD33-his protein [11], 0.76; with human CD33-his protein [12], 2.5.

B4: S006-NB147-220 (Fc fusion)
chain: QLQLVESGGGMVQPGGSLRLSCAASGFTLDYYAIGWFRQAPGKEREGVSCINSGDSSTYYADSVKGRFTISRDNAENTVYLQMNSLKPEDTAVYYCATVDTLIVAGNLEECRYDMDYWGKGTLVTVSS[letters of human IgG1 Fc with changes left out]
notes: as for B1
As for B4, the “OD450 (Biotin-C33B904 signal)” value in the assay with human CD33-his protein [1] was 0.46; with human CD33-his protein [2], 2.3; in the assay with human CD33-his protein [3] it was 2.29; with human CD33-his protein [4], 2.27; with human CD33-his protein [5], 2.33; with human CD33-his protein [6], 2.14. Besides, the “OD450 (Biotin-C33B904 signal)” value with human CD33-his protein [7] is 1.96; with human CD33-his protein [8], 1.67; with human CD33-his protein [9], 1.29; in the assay with human CD33-his protein [10], 1.07; in the assay with human CD33-his protein [11], 0.69; with human CD33-his protein [12], 2.37.

B5: S006-NB147-25 (Fc fusion)
chain: QLQLVESGGGLVQAGGSLRLSCKASGVTFSINALGWYRQAPGKQREMVAVISSGGSTNYVDSVKGRFTISRDNAKNTVYLQMNSLKPEDTAVYYCNADVVGSSWSPEYDYWGQGTQVTVST[letters of human IgG1 Fc with changes left out]
notes: as for B1
In the case of B5, the “OD450 (Biotin-C33B904 signal)” value was determined as 0.28 with human CD33-his protein [1]; 2.75 with human CD33-his protein [2]; 2.66 with human CD33-his protein [3]; 2.71 with human CD33-his protein [4]; 2.73 with human CD33-his protein [5]; 2.56 with human CD33-his protein [6]. Further, the “OD450 (Biotin-C33B904 signal)” value in the assay with human CD33-his protein [7] was found to be 2.12; with human CD33-his protein [8] it was 1.55; in the assay with human CD33-his protein [9], 0.95; with human CD33-his protein [10] it was 0.68; with human CD33-his protein [11], 0.41; with human CD33-his protein [12], 2.34.
